Assay results: PubChem BioAssay AID504444 (National Center for Advancing Translational Sciences (NCATS), 2011)
Screen size: about 360,000 compounds; about 7,500 (2.1%) were called active. Inconclusive results (about 20%) are left out. The call rests on the fitted dose curve; in most records, active means well fitted inhibition curve with a large enough effect; inconclusive means small, poorly fitted or top-dose-only effect, or effect the other way; inactive means flat fitted curve, though single readings scatter. This is a selection; strong and weak results do not stand in their true shares.

test: Nrf2 qHTS screen for inhibitors; details: A549 ARE-Fluc reporter, luciferase luminescence, 18-24 h; series mostly up to 46 µM; activity change, negative = inhibition: at the top concentration; further: nearly all actives have a fitted effect of over 60% in size
How it was run: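 Concentration-response testing used A549 ARE_Fluc cells at 5000 cells/well. Following an 18-24 h compound incubation, viability was read by fluorescence (Ex 405/Em 525) and luciferase output by luminescence.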
On the % scale 0 is the no-effect control and ±100 the full control effect; potency means the concentration at half of the fitted maximal effect.

Activity change, negative = inhibition, inactive:
C=CC[C@H](CC(=O)N(CCO)Cc1ccccc1)C(=O)NCCOC(=O)[C@@H](CC=C)Cc1ccc(F)cc1 -26.5%, C[C@@H]1CC[C@@]2(O[C@@H](CCO)C[C@H](O)[C@H]2O)O1 15.5%, Nc1nc2nc(-c3ccccc3)cc(=O)n2[nH]1 -17.3%, O=S(=O)(c1c(F)cccc1F)N1CCN(S(=O)(=O)c2c(F)cccc2F)CC1 -17.7%, COc1ccccc1Nc1nc(N2CCOCC2)nc(N2CCOCC2)n1 1.15%, C[C@@H]1CC[C@]2(O[C@H](CCO)C[C@@H](O)[C@@H]2O)O1 13.3%, COC(C[C@H]1O[C@H]1[C@H](O)[C@H](C)OCc1ccccc1)OC 14.8%, O=C(O)CC(=O)NC12CC3CC(CC(C3)C1)C2 -11.4%, Cc1cc(C)cc(NC(=O)C(=O)NCCCN2CCOCC2)c1 -0.538%, Cc1cc(C)cc(NC(=O)Cn2nnc(C(=O)NCc3ccccc3Cl)c2N)c1 -12.8%, Cc1nc2c3ccccc3nc(NNC(=O)CCC(=O)N3CCN(c4ccc(F)cc4)CC3)n2n1 5.64%, CCN(CCCNC(=O)Cn1ncc2c([nH]c3ccc(C)cc32)c1=O)c1ccccc1 12.4%, CCCN1C(=O)S/C(=C\c2ccc(N3CCOCC3)o2)C1=O 7.39%, Cc1ccc(CNc2nc3ccccc3n3cnnc23)cc1 -12.6%, Cc1cccc(N2CCN(C(=O)C(C)n3nc(C)n4c(cc5occc54)c3=O)CC2)c1C (centres undefined) -4.78%, C=CC[C@H](CC(=O)N[C@H](CO)Cc1ccccc1)C(=O)N[C@H](COC(=O)[C@@H](CC=C)Cc1ccc(F)cc1)Cc1c[nH]c2ccccc12 0.241%, C[C@H]1CC[C@]2(O[C@H](CCO)C[C@H](O)[C@H]2O)O1 2.56%, Cc1cc(/C=C2\SC(=O)NC2=O)c(C)n1-c1ccc(N2CCOCC2)cc1 17.5%, Cc1ccc(N2CCN(S(=O)(=O)c3nnc(NC(=O)c4ccccc4)s3)CC2)cc1 6.34%, Cc1ccc(OCCCCn2cnc3ccccc32)cc1 4.28%, N#Cc1nc(N)nc(N(c2ccccc2)c2ccccc2)n1 -25.5%, C=CC[C@@H](CC(=O)N[C@H](CO)Cc1ccccc1)C(=O)N[C@H](COC(=O)[C@@H](CC=C)Cc1ccc(F)cc1)Cc1ccccc1 -11.8%, Cc1ccc2oc(C(=O)N(Cc3ccc(N(C)C)cc3)CC3CCCO3)c(C)c2c1 (centres undefined) -4.63%, Cc1ccc(SCCN2CCN(CC(C)C)CCC2=O)cc1 7.69%, Cc1ccc(C(=O)Nc2nnc(S(=O)(=O)N3CCCCCC3)s2)cc1 12.9%, C=CC[C@@H](CC(=O)N[C@H](CO)Cc1ccccc1)C(=O)NC[C@@H](OC(=O)[C@@H](CC=C)Cc1ccc(F)cc1)c1ccccc1 2.6%, COc1ccccc1CN1CCC(CNS(=O)(=O)c2cc(-c3onc(C)c3C)ccc2OC)CC1 -8.44%, COc1ccc(C2/C=C\CN(S(=O)(=O)c3ccc4ccccc4c3)CC(=O)N2Cc2ccc(F)cc2)cc1 (centres undefined) 14.6%, Cc1ccc2ncc(S(=O)(=O)c3ccccc3)c(N3CCCCC3C)c2c1 (centres undefined) -26%, COc1cc(C(=O)O[C@H]2C/C(C)=C/CC[C@]3(C)O[C@@H]3C(O)C2C(C)C)cc(OC)c1OC (some centres undefined) -24%, CCC1CCCCN1CCCNC(=O)CN1C(=O)c2cccnc2Oc2ccc(C)cc21 (centres undefined) 7.16%, COc1ccccc1CNS(=O)(=O)c1ccc2c(c1)CC(=O)N2C 17.9%, N#CC(=C(O)COC(=O)Cc1c[nH]c2ccccc12)c1nc2ccccc2[nH]1 6.49%, Cc1nc2sccn2c(=O)c1S(=O)(=O)Nc1ccc(N2CCN(S(C)(=O)=O)CC2)cc1 4.11%, CCN1CCSc2ccc(C(=O)NCc3cccc(F)c3)cc21 -4.77%, O=C(NCc1ccccc1)C1=C[C@H](C2CCCCC2)C[C@H](OCc2ccc(CO)cc2)O1 -19.4%, O=C(C[C@H]1C/C=C\CC[C@H](Cc2ccc(F)cc2)C(=O)OC[C@H]2CCCN2C1=O)N[C@H](CO)Cc1ccccc1 12.3%, C=CCC[C@H](Cc1ccc(F)cc1)C(=O)OC[C@H](Cc1c[nH]c2ccccc12)NC(=O)[C@H](CC=C)CC(=O)N[C@H](CO)Cc1ccccc1 8.53%, COc1ccc(/C=C(/NC(=O)c2cccs2)C(=O)Nc2ccc(C)cc2)cc1OC -10.6%, O=[N+]([O-])c1ccc(SCCc2ccncc2)cc1 -6.6%, O=C(COCc1cc(-c2ccc3c(c2)OCO3)on1)N1CCN(c2cccc(Cl)c2)CC1 -4.04%, O=C(NCc1ccccc1Cl)C1CCCN(S(=O)(=O)c2cccc3nsnc23)C1 (centres undefined) -47%, CCc1nonc1NC(=O)c1oc2ccc(C)cc2c1C 1.46%, CCO[C@H]1OC(C(=O)NCc2ccccc2)=C[C@@H](c2ccc(C(F)(F)F)cc2)[C@@H]1CCCO -5.95%, CC(C)(C)c1ccc(C(=O)N/C(=C/c2cccs2)C(=O)NCc2ccco2)cc1 8.14%

Potency, active:
COc1ccc(C(C)=O)cc1CSc1nnc(Nc2ccccc2)s1 23.1 µM, CC(=O)c1ccc(OCCNS(=O)(=O)c2ccc(-n3cnnn3)c(C)c2)cc1 5.8 µM, COc1ccc(/C=C/c2cc(C(=O)O)c3ccccc3n2)cc1 6.51 µM, Cn1cccc/c1=N\c1cccc[n+]1C 2.91 µM, Cc1ccccc1CC1(CO)CCCN(C(=O)c2cc(Cl)ccc2F)C1 (centres undefined) 11.6 µM, Cc1cccc2sc(NNC(=O)c3cc(-c4cccs4)nc4ccccc34)nc12 23.1 µM, O=C(CN1CCN(c2nc(-c3ccccc3)cs2)CC1)NCc1ccc2c(c1)OCO2 23.1 µM, O=C(NC(Nc1nc2ccc([N+](=O)[O-])cc2s1)(C(F)(F)F)C(F)(F)F)c1ccccc1Cl 1.84 µM, CCN(CC)S(=O)(=O)c1ccc(NC(=O)Nc2cccc(C(F)(F)F)c2)cc1 20.6 µM, COc1ccc2cc3c(N)nn(C(=O)c4ccc(F)cc4)c3nc2c1 5.8 µM, C=CCn1c(C)cc(C2=NNC(=NCC)SC2)c1C 16.4 µM, CC1CC(C)C[N+](=C2C=C(N3CCCC3)CC(C)(C)C2)C1 (centres undefined) 5.17 µM, Cc1cccc(OCC(=O)Nc2c(C(=O)N3CCN(c4ccccc4F)CC3)oc3ccccc23)c1 18.4 µM

Potency, inactive:
CCC1CCC2(C1)N=C(Nc1nc3ccccc3o1)NC1=C2C(=O)CCC1 (centres undefined)
